About 2,200 (0.71%) of roughly 310,000 compounds showed an effect of 50% or more. The effect is printed as a negative number. This is one part of the list.

For this test, the target named is human ether-à-go-go-related gene (hERG) potassium channel (human, UniProt Q12809). Briefly: primary screen, population patch clamp on CHO cells stably expressing hERG.
human ether-à-go-go-related gene (hERG) potassium channel, sequence (Q12809 whole entry, looked up): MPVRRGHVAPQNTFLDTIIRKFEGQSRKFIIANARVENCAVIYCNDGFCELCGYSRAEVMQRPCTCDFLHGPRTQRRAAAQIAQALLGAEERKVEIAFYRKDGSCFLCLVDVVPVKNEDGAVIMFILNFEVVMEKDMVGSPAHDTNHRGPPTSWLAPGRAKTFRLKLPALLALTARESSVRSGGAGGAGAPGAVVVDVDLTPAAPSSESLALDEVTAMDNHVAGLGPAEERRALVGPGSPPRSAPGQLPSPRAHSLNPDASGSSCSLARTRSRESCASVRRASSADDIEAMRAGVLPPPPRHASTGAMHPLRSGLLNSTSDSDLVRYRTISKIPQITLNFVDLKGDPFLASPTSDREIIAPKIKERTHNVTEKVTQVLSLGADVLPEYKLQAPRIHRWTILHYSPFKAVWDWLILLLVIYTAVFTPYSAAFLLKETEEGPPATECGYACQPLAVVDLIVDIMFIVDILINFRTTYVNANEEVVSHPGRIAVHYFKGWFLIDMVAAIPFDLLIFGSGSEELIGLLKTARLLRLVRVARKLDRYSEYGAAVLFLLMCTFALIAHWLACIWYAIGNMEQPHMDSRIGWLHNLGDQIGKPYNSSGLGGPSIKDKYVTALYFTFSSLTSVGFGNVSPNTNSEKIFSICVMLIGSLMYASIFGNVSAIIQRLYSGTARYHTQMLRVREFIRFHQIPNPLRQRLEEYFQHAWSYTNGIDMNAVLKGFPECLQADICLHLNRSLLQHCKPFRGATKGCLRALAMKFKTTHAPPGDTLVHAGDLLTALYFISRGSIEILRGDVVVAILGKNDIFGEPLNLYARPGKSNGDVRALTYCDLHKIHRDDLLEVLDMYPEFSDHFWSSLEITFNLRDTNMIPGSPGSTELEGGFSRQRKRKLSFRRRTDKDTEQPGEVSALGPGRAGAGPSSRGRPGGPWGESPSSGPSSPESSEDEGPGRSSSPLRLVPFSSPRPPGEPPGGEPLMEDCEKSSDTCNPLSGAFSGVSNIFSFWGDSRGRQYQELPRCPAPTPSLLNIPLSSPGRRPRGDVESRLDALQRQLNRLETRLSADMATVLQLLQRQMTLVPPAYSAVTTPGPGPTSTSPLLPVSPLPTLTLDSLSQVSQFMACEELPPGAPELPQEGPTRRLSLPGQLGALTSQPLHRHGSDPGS
For `Cc1ccc(SCC(=O)c2sc(-c3ccccc3)nc2C)cc1`, the “hERG current change (%, negative = inhibition) at 1uM” value was 6.38%. For `CCOc1ccccc1N1CCN(C(=O)CNC(=O)c2sc3ccccc3c2Cl)CC1` the value was 15%; for `O=C(c1ccc2ncsc2c1)N1CCN(c2ccccc2Cl)CC1`, 2.08%; for `CCOc1ccc(C2C=C(c3ccc(C)cc3)Nc3nnnn32)cc1` (centres unmarked), -4.59%. Under `O=C(CN1C(=O)NC2(CCc3ccccc32)C1=O)NCc1ccccc1Cl` (centres unmarked) stands 41.3%; under `CC(C)(C)c1ccc(OC(=O)N2CCCCC2)cc1`, 13%. Under `Cc1ccc2oc(=O)n(Cc3ccc(F)cc3)c2c1` stands 12.3%. As to `Cn1nc(/C=C/c2ccccc2)ccc1=O`, the “hERG current change (%, negative = inhibition) at 1uM” value turned out to be 10.5%. For `O=C(Oc1ccc(-c2nnco2)cc1)C1CCN(C(=O)c2ccc(F)cc2)CC1` the value was 11.4%. Consider `Cc1ccc(C(=O)Nc2ccccc2C(=O)O)cc1S(=O)(=O)Nc1ccc(Br)cc1`, for which the “hERG current change (%, negative = inhibition) at 1uM” value came to 15.1%. For `O=C(N/N=C/c1ccccc1Br)C1CC1`, the “hERG current change (%, negative = inhibition) at 1uM” value is 30.8%.

`Cc1cc(F)ccc1S(=O)(=O)Nc1ncnc2sccc12`: the “hERG current change (%, negative = inhibition) at 1uM” value is 10.9%.

Regarding `Cc1cc(C(=O)Nc2ccc3c(c2)OCCO3)c(C)o1`, the “hERG current change (%, negative = inhibition) at 1uM” value is on record as 9.92%. On to `Cc1ccc(N2CC(NS(=O)(=O)c3cccnc3)CC2=O)cc1` (centres unmarked), for which the “hERG current change (%, negative = inhibition) at 1uM” value is 3.82%. Under `CCCCCN(C(=O)CCC(=O)OCCOc1cccc(Cl)c1)c1c(N)n(CCCC)c(=O)[nH]c1=O` stands 10.9%; under `N#Cc1ccc(NC(=O)COC(=O)CCc2nc3ccccc3c(=O)[nH]2)cc1`, 10.4%. As for `O=C(c1ccc([N+](=O)[O-])o1)N1CCc2ccccc21`, the “hERG current change (%, negative = inhibition) at 1uM” value came out at 16.4%. For `Cc1nc(CC(=O)NNS(=O)(=O)c2ccc3ccccc3c2)cs1` the value was 10.8%; for `CC(C)(C)C(=O)Nc1ccccc1N1CCN(C(=O)c2ccc(Cl)cc2)CC1`, -2.76%.

Consider `CCOc1ccc2nc(NC(=O)CSc3nnc(-c4ccncc4)n3CC3CCCO3)sc2c1` (centres unmarked), for which the “hERG current change (%, negative = inhibition) at 1uM” value is given as 6.31%. In the case of `Cc1nc2sccn2c(=O)c1S(=O)(=O)NC(C)c1ccccc1` (centres unmarked), the “hERG current change (%, negative = inhibition) at 1uM” value amounted to 14%. Turning to `COc1ccccc1N1CCN(Cc2nc3ccccc3[nH]2)CC1`, the “hERG current change (%, negative = inhibition) at 1uM” value worked out at 18.3%.

Take `N#Cc1ccc(COC(=O)c2ccc(N3CCCC3)c([N+](=O)[O-])c2)cc1`: the “hERG current change (%, negative = inhibition) at 1uM” value was found to be 2%. For `Fc1ccccc1Nc1nc(N2CCOCC2)nc(N2CCOCC2)n1` the value was 16.8%; for `C[C@H](NC(=O)OCc1ccccc1)c1nnc([C@H](Cc2ccccc2)NC(=O)OC(C)(C)C)o1`, 1.94%; for `O=C(CCC(=O)c1cccs1)NNC(=O)c1cccc(Cl)c1`, -3.06%.

In the case of `CC(C)NC(=O)Cn1cc(S(=O)(=O)N2CCCC2)c(S(=O)(=O)N2CCCC2)c1`, the “hERG current change (%, negative = inhibition) at 1uM” value turned out to be 11.8%. Under `O=C(CN1CCC(NC(=O)Nc2ccccc2)CC1)Nc1cccc([N+](=O)[O-])c1` stands -0.226%; under `CCCCC(=O)Nc1nc(C)c(C(C)=O)s1`, 13.6%; under `COc1ccc(N/N=C(/C)c2cnnc(-c3ccccc3)n2)cc1`, 7.77%. Turning to `O=c1[nH]c(/C(Cl)=C/c2cc(Cl)ccc2O)nc2cc(Cl)ccc12`, the “hERG current change (%, negative = inhibition) at 1uM” value is given as 8.93%.

Regarding `CCC1Oc2ccc(C)cc2N(CC(=O)N(Cc2cccnc2)Cc2ccc(C)o2)C1=O` (centres unmarked), the “hERG current change (%, negative = inhibition) at 1uM” value is recorded as -5.91%. For `O=C(CSCc1cnn(-c2ccccc2)c1-n1cccc1)NCC1CCCO1` (centres unmarked) the value was 10.9%; for `Cc1cc(NC(=O)CSc2nc3ccsc3c(=O)n2NC(=O)c2ccccc2)no1`, 4.46%.

`CC(=O)N1CCN(C(=O)CCNS(=O)(=O)c2ccccc2)CC1`: the “hERG current change (%, negative = inhibition) at 1uM” value amounted to 9.56%. Consider `Cc1ccc(C(=O)N(CC(=O)NC2CCCCC2)c2ccccc2C)s1`, for which the “hERG current change (%, negative = inhibition) at 1uM” value is recorded as 1.68%. Turning to `O=P(Nc1cccc(Cl)c1)(Oc1ccccc1)Oc1ccccc1`, the “hERG current change (%, negative = inhibition) at 1uM” value worked out at 3.58%. For `COc1ccc(Nc2nc3c(C)cccc3cc2C#N)cc1` the value was 9.13%; for `CC(C)(C)Nc1c(N)c(=O)oc2ccccc12`, 3.48%; for `Cc1cccc(OCCC(=O)Nc2ccc(S(=O)(=O)N3CCCC3)cc2)c1`, 14%. As to `CCOC(=O)c1ccc(NC(=O)N(CC)CC)cc1`, the “hERG current change (%, negative = inhibition) at 1uM” value turned out to be 5.73%. As to `CC(=Nc1ccc(O)cc1)c1sc2ccccc2c1O`, the “hERG current change (%, negative = inhibition) at 1uM” value is on record as 6.62%. For `O=C(N/N=C/c1ccccc1)c1cc[n+]([O-])cc1` the value was 21.2%; for `COc1ccc(CNC(=O)c2ccccc2NS(C)(=O)=O)cc1`, 8.73%. Under `CCN(CC)CCOCCOC(=O)C1(c2ccccc2)CCCC1.O=C(O)CC(O)(CC(=O)O)C(=O)O` stands -0.103%; under `COC(=O)C1=C(C)NC(C)=C(C(=O)OCCN(C)Cc2ccccc2)C1c1cccc([N+](=O)[O-])c1.Cl` (centres unmarked), 13.8%. In the case of `C#CCN(C)C(C)Cc1ccccc1.Cl` (centres unmarked), the “hERG current change (%, negative = inhibition) at 1uM” value is listed as 11%. Regarding `Cc1ccc2c(N)c(C#N)sc2n1`, the “hERG current change (%, negative = inhibition) at 1uM” value came out at 14%. For `COc1ccc(OC)c(CNc2c(C=O)c(=O)[nH]c3ccccc23)c1` the value was 21.2%; for `Cc1nn(C)c(C)c1/C=N/NC(=O)CCn1cc([N+](=O)[O-])cn1`, -1.06%; for `NC(=O)c1cn(C2CCCCC2)c2ccccc2c1=O`, -10.9%. As for `CC(C)NC(=S)N1CCN(Cc2ccc3c(c2)OCO3)CC1`, the “hERG current change (%, negative = inhibition) at 1uM” value is on record as 9.9%. As for `CC(C)CC1NC(=O)N(CC(=O)Nc2cccc(Br)c2)C1=O` (centres unmarked), the “hERG current change (%, negative = inhibition) at 1uM” value was found to be 3.12%. Consider `CN(Cc1ccccc1)C(=O)c1ccc(NC(=O)Cc2cccc(NC(=O)C3CCCN(C(=O)CCc4ccccc4)C3)c2)cc1` (centres unmarked), for which the “hERG current change (%, negative = inhibition) at 1uM” value stood at 11.5%. Under `CCCCNc1ncnc2c1cnn2Cc1ccc(Cl)cc1` stands 5.02%; under `CN(C)/C=C(\C#N)C(=O)c1cccnc1Oc1ccc(F)cc1F`, -1.06%. For `COc1ccc(OCc2csc(N)n2)cc1` the value was 29.9%. Under `Cc1ccc(-c2csc3ncn(CC(=O)NCC(c4ccco4)N4CCCC4)c(=O)c23)cc1` (centres unmarked) stands -5.43%; under `CC(Oc1ccc(F)cc1F)C(=O)/C=C/N(C)C` (centres unmarked), 2.17%; under `COc1ccc(-c2nnn(CC(=O)N3CCN(c4ccc(F)cc4)CC3)n2)cc1`, 10.6%. Turning to `CC(=O)N(C1=C(Cl)C(=O)c2ccccc2C1=O)C1CCCCC1`, the “hERG current change (%, negative = inhibition) at 1uM” value is on record as 10.2%. Under `CCSc1nnc(-c2cccc(S(=O)(=O)N(CC)CC)c2)n1Cc1ccccc1` stands -19.5%; under `CCCCN(C(=O)CSCc1c(C)noc1C)c1c(N)n(CCC)c(=O)[nH]c1=O`, 12.9%; under `COC(=O)C1=C(C)NC(C)=C(C(=O)OC)C1c1ccc(-c2cc(Cl)ccc2Cl)o1`, 7.44%. Turning to `COc1ccc(NC(=O)Cn2nnc(C(=O)NCc3ccc4c(c3)OCO4)c2N)cc1`, the “hERG current change (%, negative = inhibition) at 1uM” value is listed as 13.8%.

Regarding `CC(C)C(=O)N1CCC2(CC1)Oc1ccc(Cl)cc1C(=O)C21CC(c2ccccc2)=NO1` (centres unmarked), the “hERG current change (%, negative = inhibition) at 1uM” value is 2.32%.

Consider `S=C(NNC(=S)NC1CC2CCC1C2)NC1CC2C=CC1C2` (centres unmarked), for which the “hERG current change (%, negative = inhibition) at 1uM” value was determined as 13.2%. On to `O=C(Nc1cccc(F)c1)N(Cc1ccc(Cl)cc1)CC(O)C(F)(F)F` (centres unmarked), for which the “hERG current change (%, negative = inhibition) at 1uM” value was found to be 1.71%.

Consider `CN(C)c1ccc(P(=O)(Nc2cccc(C(F)(F)F)c2)N2CCOCC2)c(NC(=O)c2cccs2)c1` (centres unmarked), for which the “hERG current change (%, negative = inhibition) at 1uM” value is reported as 15%. Under `c1ccc(-c2ccccc2-n2cnnn2)cc1` stands 4.4%; under `O=C(COc1cc(Cl)ccc1Cl)Nc1ccc2[nH]c(=O)[nH]c2c1`, 20.6%; under `O=[N+]([O-])c1ccc(S(=O)(=O)N/N=C/c2ccco2)cc1`, 7.67%. For `Cc1cc(S(=O)(=O)NCCc2ccccc2)ccc1-n1cnnn1` the value was 5.32%; for `Fc1ccc(Sc2nc(-c3ccccc3)nnc2C(F)(F)F)cc1`, 15.5%; for `COc1ccccc1COCC(O)CN1CCCCC1CO.O=C(O)C(=O)O` (centres unmarked), 14.9%. For `CC(C)Oc1cccc(C(=O)NC(=S)Nc2ccccc2N2CCOCC2)c1` the value was 0.628%; for `COc1ccc(C2c3ccc(O)cc3Oc3ncn4nc(-c5ccncc5)nc4c32)cc1OC` (centres unmarked), -0.788%.

As to `CCCN1Cc2cccc(C(=O)NCc3ccc(C)cc3)c2C1=O`, the “hERG current change (%, negative = inhibition) at 1uM” value is listed as -4.32%. Under `COc1cc(CNCc2ccccn2)ccc1OCc1c(Cl)cccc1Cl.Cl` stands -4%; under `Cc1ccc(C)c(NC(=O)CCC(=O)NNC(=O)c2cccs2)c1`, 14.4%; under `O=C(Nc1cc(S(=O)(=O)Nc2ccccc2Cl)ccc1O)c1cc2c(s1)CCCC2`, -0.558%. As to `Cn1c(/C=C/N2CCOCC2)c(C(=O)c2ccc(Br)cc2)c(=O)n(C)c1=O`, the “hERG current change (%, negative = inhibition) at 1uM” value stood at 5.89%. Under `Nc1nc(N)nc(-c2cc(O)ccc2O)n1` stands 5.4%; under `Cc1c(/C=C/C(=O)c2ccccc2)cnn1C`, 8.63%. As for `O=C(Nc1cccc(Cl)c1)OC1CN2CCC1CC2` (centres unmarked), the “hERG current change (%, negative = inhibition) at 1uM” value stood at 12.8%. `COC(=O)C1=C(C)N(Cc2ccccc2)C(=NCc2ccc(OC)cc2)N[C@H]1c1cccc(F)c1`: the “hERG current change (%, negative = inhibition) at 1uM” value is listed as 11.4%. As for `CC(C)c1ccc2[nH]c3nc(SCC(=O)N4CCOCC4)nnc3c2c1`, the “hERG current change (%, negative = inhibition) at 1uM” value was determined as 10.2%. As for `Cc1cc(C)c(C#N)c(Oc2ccccc2)n1`, the “hERG current change (%, negative = inhibition) at 1uM” value was 6.47%. Under `Cc1ccc(NC(=O)c2ccc(OCc3c(C)noc3C)cc2)c(C)c1` stands 11.2%.

(Values after paper PMC4336329 (PLoS ONE, 2015).)
